Reference: PubChem BioAssay AID1347434 (National Center for Advancing Translational Sciences (NCATS), 2020)
Out of some 1,200 compounds screened, about 30 (2%) were called active. Inconclusive results (about 23%) are left out. Calls follow the shape of the dose curve; as a rule, active = well fitted inhibition curve with a large enough effect; inconclusive = small, poorly fitted or top-dose-only effect; inactive = flat fitted curve, though single readings scatter. This is one part of the list.

Target: Single-stranded DNA cytosine deaminase (Homo sapiens) (UniProt Q9GZX7)
Chain of UniProt Q9GZX7 (Q9GZX7 whole entry, looked up): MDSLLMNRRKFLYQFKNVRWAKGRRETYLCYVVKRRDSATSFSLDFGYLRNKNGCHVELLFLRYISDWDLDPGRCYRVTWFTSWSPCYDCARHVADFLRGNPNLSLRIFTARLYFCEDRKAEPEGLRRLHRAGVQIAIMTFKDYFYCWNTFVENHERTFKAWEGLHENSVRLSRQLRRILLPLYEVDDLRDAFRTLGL
Test: Confirmatory qHTS assay for inhibitors of Activation Induced Cytidine Deaminase (AID): AID signals
Details: recombinant AID, FRET deamination/UDG coupled fluorescence, 4 h; series mostly up to 115 µM; activity, negative = inhibition: at the top concentration
Summary of the method: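 Read 1 (AID) was measured at 540 ex/590 em after a 30 min NaOH step. The reaction was AID (1 uM, 4/3x stock) with UDG, compound at final 7.32 nM - 114 uM for 10 min, then DJC20/DJC23 substrate for 4 hr at room temperature. A UDG read at 560/665 serves as counterscreen.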
% is scaled to controls: 0 for no effect and ±100 for the full control effect; potency is read from the fitted curve at half-maximal effect.

activity, negative = inhibition, inactive:
CCc1ccc(CNC(=O)c2ccc(CSc3nc4ccncc4n3Cc3ccccc3)cc2)cc1 4.54%, CC1(C)CC(=O)c2cc(C#N)c(=O)n(-c3ccc(Cl)cc3)c2C1 7.89%, Cc1nc2c(C(=O)NCc3ccccc3)cnn2c(C)c1Cc1ccc(F)cc1 -26.7%, CCN1C(=O)c2ccccc2Sc2ccc(NC(=O)COc3ccc(Cl)cc3)cc21 -10.5%, CCN(CC)c1cc(C)c2cc(NC(=O)c3ccc(OC)c(OC)c3)ccc2n1 -2.1%, Cc1cc(Nc2cccc(C(F)(F)F)c2)nc2ccc(NC(=O)Cc3ccc(Cl)cc3)cc12 -8.67%, COc1ccc(Cl)cc1NC(=O)CSc1nc(=O)n(Cc2ccco2)c2c1CCC2 -18.2%, Cc1cc(C)cc(Nc2nc3cc(Cl)c(Cl)cc3nc2-n2nc(C)cc2C)c1 10.3%, COc1cc2c(cc1OC)C(COc1ccc(F)cc1)N(C(=O)c1cccc(F)c1)CC2 (stereo not given) -9.9%, Cc1cc(C)cc(NC(=O)Cn2nnc(C(=O)NCc3ccco3)c2N)c1 -23.8%, CCOc1ccc(N(CC)S(=O)(=O)N2CCCC(C(=O)NCCc3ccccc3OC)C2)cc1 (stereo not given) -5.97%, Cc1cccc(N2CCN(C(=O)c3ccc4c(c3)c(C)c(C)n4C)CC2C)c1 (stereo not given) -17.3%, COc1ccccc1CN1CCC(CNC(=O)c2cnn(-c3ccc(C)c(C)c3)c2C2CCN(C(=O)OC(C)(C)C)CC2)CC1 -12.1%, CCc1ccc2oc(-c3cc(NC(=O)c4cc([N+](=O)[O-])ccc4N4CCOCC4)ccc3Cl)nc2c1 -4.08%, COc1ccc(-c2nc3c(c(SCC(=O)N4CCCCC4)n2)Cc2c(CO)cnc(C)c2O3)cc1 -0.171%, Cc1ccc(C)c(N2CCN(C(=O)c3cc(S(=O)(=O)N4CCCCCC4)cn3C)CC2)c1 -10.1%, O=C(NCc1cccs1)c1ccc(Cn2c(SCc3ccc(F)cc3)nc3cccnc32)cc1 -4.91%, CC1CCCCN1C(=O)CSc1nc2ccccc2nc1Cc1ccccc1 (stereo not given) -15.5%, CCCN(CCC)CCCNC(=O)c1cc2c(-c3ccc(Cl)cc3)nn(C)c2s1 -20.4%, COc1ccccc1Nc1nn2c(=O)c3ccc(C(=O)N4CCC(C)CC4)cc3nc2s1 -12.2%, CCN(C(=O)CCc1nc(-c2ccc(C)cc2)no1)c1cc(C)ccc1C -18.2%, CCCCOc1ccc(C2=NC(c3ccncc3)=Nc3ccc(Br)cc3N2)cc1 2.1%, CCn1cc(S(=O)(=O)c2ccc(OC)cc2)c(=O)c2cc(F)c(N3CCC(C)CC3)cc21 -25.9%, Cc1ccc(CN(Cc2ccco2)C(=O)COc2c(C)cc(C)cc2C)cc1 -9.83%, Cc1ccccc1CN1CCC(CNc2ncnc3onc(-c4ccc(Cl)cc4)c23)CC1 2.45%, CCCn1cc(S(=O)(=O)c2ccccc2)c(=O)c2cc(F)c(N3CCCCC3)cc21 -12.4%, Cc1ccc(Cc2c(C)nc3nc(SCC(=O)NC(C)c4ccccc4)nn3c2C)cc1 (stereo not given) -6.04%, COc1ccccc1NC(=O)CSc1nnc2c3ccccc3n(C(C)C)c2n1 -8.08%, COc1ccccc1C(=O)NCCc1csc(-c2ccc(C(F)(F)F)cc2)n1 -9.97%, CN(C)S(=O)(=O)N(CC(=O)NCCSc1ccc(Cl)cc1)c1ccccc1 -5.54%, Cn1c2ccccc2c2c(C(=O)N3CCN(c4cccc(C(F)(F)F)c4)CC3)cn(C3CCCCC3)c(=O)c21 -7.51%, COc1cc(NC(=O)Cn2cc(S(=O)(=O)N3CCC(C)CC3)c3ccccc3c2=O)cc(OC)c1OC -10%, Cc1ccc(C(=O)c2cn(CC(=O)Nc3ccc4c(c3)OCCO4)c3nc(C)ccc3c2=O)cc1 -25.8%, CCc1ccc(OCC2c3cc(OC)c(OC)cc3CCN2C(=O)Cc2ccc(OC)c(OC)c2)cc1 (stereo not given) -16.6%, Cc1cccc(N2CCN(C(=O)c3c4c(nc5ccccc35)C(=O)N(C3CCCCC3)C4)CC2)c1C -26.2%, Cc1ccc(-n2ncc(C(=O)N3CCN(Cc4ccccc4)CC3)c2C2CCN(C(=O)OC(C)(C)C)CC2)c(C)c1 -9.26%, COCCc1nn2c(=O)cc(COC(=O)c3ccc(C(C)(C)C)cc3)nc2s1 -10.1%, O=C(c1ccc2c(Cl)c3c(nc2c1)CCCC3)N1CCN(c2cccc(Cl)c2)CC1 -13%, COc1ccc(CCNC(=O)CS(=O)Cc2nc(-c3ccc(C)cc3)oc2C)c(OC)c1 (stereo not given) 4.89%, CCOC(=O)c1cc(-c2ccc(C)cc2)n(CCC(=O)Nc2ccc(OC)c(OC)c2)c1C -0.56%, Cc1cccc(NC(=O)CCn2nc(-c3ccccc3)c3ccccc3c2=O)c1 -19.9%, CCc1nn2c(=O)cc(COC(=O)C(c3ccccc3)c3ccccc3)nc2s1 -2.37%, Fc1ccc(CNc2nc(-c3ccccc3)cc(C(F)(F)F)n2)cc1 -14.2%, Cc1ccc(Cl)cc1N1CCN(C(=O)c2ccc(C)c(-n3c(C)nc4cccnc43)c2)CC1 -6.99%

Potency, active:
C[N+](C)(CCCCCC[N+](C)(C)CCCN1C(=O)c2cccc3cccc(c23)C1=O)CCCN1C(=O)c2cccc3cccc(c23)C1=O 5.01 µM
